# In ChEMBL document CHEMBL5308541, “MAIP: An Open-Source Tool to Enrich High-Throughput Screening Output and Identify Novel, Druglike Molecules with Antimalarial Activity” (ACS Med Chem Lett, 2023):
# In all, about 150,000 compounds went through this assay and about 540 (0.36%) showed an effect of 50% or more. This is one part of the list.
# Test system: Plasmodium falciparum
# Assay: Primary screen in NF54 nanoGlo assay, in single point, at 2uM, 72h; a lower Z score goes with more inhibition
# Type: functional, Erythrocyte
# Conditions: timepoint 72 hour
Structure (SMILES),% Inhibition [%],Z score
Cc1nnc(-c2cccc(C(=O)N3CC4(CC4)c4ccccc43)c2)o1,-3,0.66
CCOc1ccc2oc(-c3ccccc3)c(C(=O)NCCc3c[nH]c4ccccc34)c2c1,8,-1.66
CC(C)(C#N)C(=O)Nc1cc(-c2nc3ccc(Br)cc3[nH]2)ccc1Cl,-2,0.27
Cc1cc(C)nc(Nc2ccc(Cl)c(C(=O)N3CCN([C@@H](C)C(=O)NC4CC4)CC3)c2)n1,-5,0.85
O[C@H]1CCCN(CCCNc2cccc(C(F)(F)F)n2)C1,-4,0.66
Nc1ccc2c(N[C@@H]3CCCC[C@H]3O)ncnc2n1,1,-0.17
Cc1cc(Nc2ncnc3c2cnn3C)cnc1N1CCCC[C@@H]1C,-19,3.21
CN1CCC(Cc2noc(-c3ccc(-c4ccncc4)[nH]c3=O)n2)CC1,-8,1.22
CC(C)c1cnc(NC(=O)N2CC[C@H](Nc3ccc4nccn4n3)C2)s1,-8,1.46
Cc1ccc(-c2cc(N3CCOCC3)c3cc(NC(=O)NC4CCCCC4)ccc3n2)cc1,-3,0.44
Cc1c(CN2CCC[C@H](CCC(=O)N(C)C3CCN(C)CC3)C2)[nH]c2c(C)cccc12,7,-1.26
FC(F)(F)c1c[nH]c(C2CCN(c3ncnc4[nH]ncc34)CC2)n1,-2,0.39
O[C@H](COc1ccccc1CNCCCn1ncc2ccccc21)CN1CCCCC1,13,-2.26
NC(=NCCCc1nc2ccccc2[nH]1)NC1CCCCCC1,-5,0.9
CC(C)c1ccnc(NCC2CCNCC2)n1,-1,0.31
Nc1nc(N2CCOCC2)cc(N2CCC(N3CCC[C@H](CO)C3)CC2)n1,-10,1.71
O=C(CCn1cnc(-c2ccccc2)c1-c1cc2ccccc2[nH]1)N1CCCC1,-3,0.75
Cc1cccc2c1OCC[C@H]2NS(=O)(=O)c1cnnn1C,4,-0.76
Cc1cc2nc(CCC(=O)N(C)CCC[C@H]3CCCO3)[nH]c2cc1C,6,-0.98
COc1cc(Br)c2nc(NCc3ccc(OC)c(OC)c3)nc(N)c2c1,20,-3.45
Cc1c(C(=O)N2CCC([C@H]3CCNC3)CC2)cnn1C(C)C,-9,1.37

Structure (SMILES),% Inhibition [%],Z score
CCOC(=O)c1nc(NC(=O)c2ccnn2C(F)F)c[nH]1,-4,0.66
CC[C@H](O)CN1CCN(c2nc(C(F)(F)F)nc3ccc(OC)cc23)CC1,-4,0.92
CN(CCC#N)c1ccc(-c2nc3ccncc3[nH]2)cc1,5,-0.81
CCN(C)c1ccnc(NC2CCN(C(=O)N3CCCCC3)CC2)n1,8,-1.48
Cc1nc(-c2ccncc2)nc(N2CC[C@H](N3CCNCC3)C2)c1C,11,-1.7
CCc1cnc(C)nc1CC[C@H]1COc2ccccc2O1,-17,2.57
COc1ccc2[nH]c(CCNC(=O)N3CC4CCC3CNC4)nc2c1 (stereo not drawn),-6,1.09
CCCc1cc(N2CCC(N(C)Cc3cccc4cnccc34)CC2)nc(C)n1,6,-1.1
CC(C)C1OCCCC1Nc1ccnc(NCc2ccc(C(N)=O)cc2)n1 (stereo not drawn),3,-0.65
CN(CCCN1CCN(c2cccc(Cl)c2)CC1)C1CC2CNC(=O)CC2C1 (stereo not drawn),0,0
CCCN1CCC(NC2CCN(c3cccc(N4CCNC4=O)c3)CC2)CC1,-16,2.77
O=S(=O)(c1cccnc1)N1CCC(CNc2ncnc3cnccc23)CC1,-1,0.17
CC(C)c1cc(-c2ccnc3[nH]ccc23)nc(C(F)(F)F)n1,-7,1.37
COc1ccc2nc(CN3CCC(Oc4ncccc4F)CC3)[nH]c2n1,-5,0.82
Cc1cc(NC(C)CN2CC(C)CC(C)C2)nc(N)n1 (stereo not drawn),2,-0.27
Fc1ccc2c(CCNC3CCN(c4nccs4)CC3)c[nH]c2c1,1,-0.19
O=S(=O)(c1ccccc1CNc1ccc2ncccc2c1)N1CCOCC1,1,-0.12
NC(=O)c1cc(C(=O)N[C@@H](CCO)c2cccs2)c[nH]1,-4,0.78
CC(C)(O)c1cncc(-c2cccc(C(=O)N3CCC4CNCC43)c2)c1 (stereo not drawn),1,-0.09
Cc1cc(C(=O)Nc2ccc3[nH]c([C@H](C)O)nc3c2)nc(C)n1,-7,1.6
NCc1ccc(-c2cnc(N3CCC(O)CC3)nc2)cc1C(F)(F)F,1,-0.19

Structure (SMILES),% Inhibition [%],Z score
COCC1CCN(c2ccnc3cc(F)ccc23)CC1,7,-1.37
c1ccc2nc(-c3ccnc4[nH]ccc34)cnc2c1,-4,0.62
Oc1cc(CN2CC(O)C(Cc3ccc4ccccc4n3)C2)nc2ccccc12 (stereo not drawn),-1,0.32
CCN(CC)CCN(CC)C(=O)c1ccc(-c2[nH]nc3c2CCc2cc(OC)ccc2-3)cc1,6,-1.08
Cc1cccc2c(-c3cncc(C(C)(C)O)c3)c[nH]c12,-6,1.11
NC(=O)C1CC=CCC1NC1CCN(c2cccc(-c3ccccc3)c2)CC1 (stereo not drawn),-5,0.93
COc1ncnc(C)c1-c1ccc(N2CCNCC2)cc1,2,-0.46
CC(C)c1cc(NC(=O)c2ccc3c(c2)N(C)CCO3)n(C(C)C)n1,8,-1.28
COCC[C@]1(C(N)=O)CCCN(C2CCN(C(=O)CCc3c[nH]c4ccccc34)CC2)C1,-7,1.24
O=C(O)c1ccc(-c2ccc3[nH]ccc3c2)nn1,-9,1.32
CCN1CCC[C@H](CN2CCC(c3cc[nH]c(=O)c3)CC2)C1,-7,1.17
Cc1cc(N2CCC(N(C)Cc3ncc(-c4ccccc4C)o3)CC2)nc(C)n1,-3,0.66
COc1ccc(CN2CCCNC(=O)[C@@H](C(C)C)NC(=O)[C@@H](C)NC(=O)CCC2)cc1Cn1cccn1,-3,0.66
CC(C)N1CC23C=CC(O2)C(C(=O)Nc2nc(-c4ccc(F)cc4)cs2)C3C1=O (stereo not drawn),-6,1.37
Nc1nc(NCC2CCN(CCc3ccccc3)CC2)cc([C@H]2C[C@@H](N)C2)n1,28,-5.5
Nc1nc(CCCNc2nccc(-c3ccccn3)n2)cs1,9,-2
COCC(=O)NCC(O)(c1cccs1)c1cccs1,-1,0.28
O=C(COc1ccc(-c2csc3ccccc23)cc1CN1CCOCC1)N1CCCC[C@H]1c1cccnc1,-9,1.52
CN1CC(=O)N(CC(=O)NC[C@H]2CC[C@@H]3C[C@H]2C3(C)C)C1=O,-8,1.19
FC(F)(F)Oc1cccc(C2(NCc3ccc4cn[nH]c4c3)CCOCC2)c1,-6,0.88
CN1CCN(c2cc(N3CC[C@H](OCc4ccncc4)C3)ncn2)CC1=O,-11,1.61

Structure (SMILES),% Inhibition [%],Z score
CC(C)CCC1CCCC1NCCCN1CCOCC1 (stereo not drawn),6,-1.29
COC1COCC1NS(=O)(=O)c1cc(C(N)=O)cs1 (stereo not drawn),-12,1.99
C[C@@H](CCNc1nccs1)N1CCN(C)CC1,-3,0.65
FC(F)(F)c1cccnc1NCC[C@H]1CCCCN1C1CCCC1,2,-0.24
CC(C)N1CCC(Nc2nc(-c3ccccc3)cc(C(F)(F)F)n2)CC1,7,-1.35
FC(F)(F)c1cccnc1NCCNCc1c[nH]nc1-c1cccnc1,-8,1.62
COC1(OC)CCOCC1NC(=O)CC(C)Cc1cccc(F)c1 (stereo not drawn),8,-1.81
NC(=O)C12CCCC1CN(C(=O)NC(c1cccnc1)C1CC1)C2 (stereo not drawn),-4,0.91
OCC1CCN(Cc2ccccc2NCc2cnc3ccccc3c2)CC1,-2,0.34
CN(Cc1cc(-c2ccncc2)no1)C(=O)NC[C@H]1CCCN(CCO)C1,3,-0.59
COc1ccccc1CCNC(=O)Cc1ccc(N2CCC(NCCc3c[nH]cn3)CC2)cc1,5,-0.93
C[C@@H](CO)N(C)c1ncc(Cl)cn1,-2,0.31
CN1CCC[C@@H](CNCc2cccc3cc[nH]c23)[C@@H]1c1cncn1C,7,-1.12
NS(=O)(=O)c1ccc2[nH]c(-c3ccc(N4CCCC4)cc3)nc2c1,1,-0.18
O=C(NC1CC1)C1CCCC(Nc2ncnc3cc(F)c(F)cc23)C1 (stereo not drawn),-14,2.41
Nc1nc(NCc2cnc3ccccc3c2)cc(C2CC(N)C2)n1 (stereo not drawn),6,-0.85
Fc1cncnc1NCc1cn(-c2cccs2)nn1,-6,0.92
CC(C)(CN1CCCC1)NC(=O)c1ccc(-c2cccc3c(N)ccnc23)cc1,14,-2.46
Cc1nc(N)sc1C(=O)NC1CCN(C(=O)N2CCOCC2)CC1,-1,0.18
O=C(NCC1CN(C(=O)c2ccccc2)C2CCN1C2)c1cc2c(F)cccc2[nH]1 (stereo not drawn),-8,1.34
O[C@@]1(CN(CC#Cc2ccccc2)C2CC2)CCCN2CCCC[C@@H]21,-8,1.33
